Inconclusive results, whose numbers are uncertain, are shown with a selection of clear calls. Potencies of inconclusive entries are left out as doubtful fits. Activity calls are given as the source filed them. Calls come from the whole dose curve; as a rule, active = well fitted curve in the direction sought with a large enough effect; inconclusive = small, poorly fitted or top-dose-only effect, or another doubt; inactive = no such curve, though single readings can be large; an effect the other way counts as inactive or inconclusive.
Experiments:
[1] = target: Rap guanine nucleotide exchange factor 3 (Homo sapiens) (UniProt O95398); experiment: Confirmatory qHTS for antagonist of cAMP-regulated guanine nucleotide exchange factor 3 (EPAC1) (AID 1645880); settings: EPAC1 Rap1B-BODIPY-GDP exchange, fluorescence; activity, negative = inhibition: at 115 µM (top of the series); note: nearly all actives have a fitted effect of over 55% in size;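 for activity, negative = inhibition: plate controls were DMSO only for no effect and full effect of the ATA control for full effect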
Method in brief: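 Released BODIPY-GDP fluoresces less than Rap1-bound BODIPY-GDP; the signal is followed at 480/540 nm at 5-min intervals over 30 min, after 5 min at room temperature. Reactions contain 100 nM EPAC1, 250 nM RAP1B-BODIPY-GDP and 50 uM GDP; results are normalized to ATA and DMSO.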

[2] = target: Rap guanine nucleotide exchange factor 4 (Homo sapiens) (UniProt Q8WZA2); experiment: Confirmatory qHTS for antagonist of cAMP-regulated guanine nucleotide exchange factor 4 (EPAC2) (AID 1645885); settings: activity change, negative = inhibition: at 12.7 µM (top of the series) unless noted; note: nearly all actives have a fitted effect of over 25% in size; for activity change, negative = inhibition: % is set by controls: 0 for no effect and ±100 for the full control effect
[3] = target: Rap guanine nucleotide exchange factor 3 (Homo sapiens) (UniProt O95398); experiment: Counterscreen qHTS for agonist of cAMP-regulated guanine nucleotide exchange factor 3 (EPAC1) (AID 1645889); settings: EPAC1 Rap1B-BODIPY-GDP exchange, fluorescence; activation: at 154 µM (top of the series) unless noted; note: nearly all actives have a fitted effect of over 40% in size; for activation: % of control where 0% means no effect
Method in brief: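 Rap1B-BODIPY-GDP 250 nM + GDP 50 uM; cpds 7-pt, final 9.74 nM–152 uM (activator mode) or from 7.32 nM upwards (inhibitor mode); RT; FI 480/540 nm at 5 and 30 min, then ± cAMP, reread.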

[4] = target: DNA repair nuclease/redox regulator APEX1 (Homo sapiens) (UniProt P27695); experiment: Confirmation qHTS Assay for Inhibitors of the Human Apurinic/apyrimidinic Endonuclease 1 (APE1) (AID 2572); note: nearly all actives have a fitted effect of over 30% in size
Method in brief: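 Inhibition is measured on a short double-stranded THF-site oligo, 50 nM final, whose incision relieves BHQ-2 quenching of TAMRA. After 15 min enzyme–compound preincubation at RT, three reads a minute apart are taken.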

[5] = target: Lethal(3)malignant brain tumor-like protein 1 (Homo sapiens) (UniProt Q9Y468); experiment: qHTS Assay for the Inhibitors of L3MBTL1: Hit Validation (AID 540279); settings: L3MBTL1 methyl-lysine binding inhibition, biochemical qHTS; note: nearly all actives have a fitted effect of over 70% in size
Method in brief: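 AlphaScreen displacement: 50 nM L3MBTL1 bound to 75 nM biotin-H3K9me1 peptide for 30 min, compound added for 30 min at room temperature, then beads at 10 ug/mL final for 30 min in the dark. Cefsulodin titration served as intraplate control.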

[6] = qHTS for Inhibitors of the vitamin D receptor (VDR): Hit Validation using a Texas Red Assay (AID 602201)
Method in brief: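 After a 2-hour room-temperature incubation, polarization of Texas-Red emission was read (Ex 595 nm/Em 615 nm). Final mix contained 7 nM Texas Red, 1.5 uM VDR-LBD and LG19078.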

[7] = target: Vitamin D3 receptor (Homo sapiens) (UniProt P11473); experiment: qHTS for Inhibitors of the vitamin D receptor (VDR): Hit Validation using a Beta-Lactamase Assay (AID 602202)
Method in brief: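 Beta-lactamase reporter read-out (447 nm emission of cleaved FRET substrate, 2 h) after 18 h compound exposure of HEK293 cells carrying a VDR-GAL4 fusion and UAS reporter, stimulated with LG190178.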

[8] = qHTS for Inhibitors of the vitamin D receptor (VDR): Hit Validation using a Cytotoxicity Assay (AID 602204);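 note: cells co-treated with VDR agonist LG190178 at 300 nM; nearly all actives have a fitted effect of over 75% in size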
Method in brief: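 Cells were seeded at 20,000 per well and left 4 hours before compound addition. After 18 hours of exposure, an ATP-detecting luminescent reagent was added, and luminescence was read 30 minutes later. Cycloheximide at high concentration and DMSO served as controls.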

[9] = target: Tumor susceptibility gene 101 protein (Homo sapiens) (UniProt Q99816); experiment: qHTS Assay for Iinhibitors of HIV-1 Budding by Blocking the Interaction of PTAP/TSG101: Hit Validation (AID 651600); note: nearly all actives have a fitted effect of over 70% in size
Method in brief: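 FITC-PTAP peptide (50 nM final) binding to Tsg101 binding domain (10 uM final) was measured by polarization after 20 min at r.t. with compounds, in 10 mM HEPES pH 7.5 buffer with 0.15 M NaCl and 0.01% Tween 20.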

[10] = target: Fructose-bisphosphate aldolase (Giardia intestinalis (strain ATCC 50803 / WB clone C6)) (UniProt A8B2U2); experiment: qHTS Assay for Inhibitors of Fructose-1,6-bisphosphate Aldolase from Giardia Lamblia: Primary screen confirmation (AID 2787); note: nearly all actives have a fitted effect of over 45% in size
Method in brief: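 FBPA (40 nM in enzyme reagent, with 30 uM ZnCl2) was preincubated 10 min at RT with compound up to 57.5 uM final. Substrate plus coupled detection system was then added, and fluorescence (525/598 nm) was read after 20 min at RT.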

[11] = target: Fructose-bisphosphate aldolase A (Oryctolagus cuniculus) (UniProt P00883); experiment: qHTS Assay for Inhibitors of Fructose-1,6-bisphosphate Aldolase from Giardia Lamblia: Rabbit FBPA Selectivity (AID 2794); note: nearly all actives have a fitted effect of over 60% in size
Method in brief: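 Rabbit Class I FBPA selectivity counterscreen, 1536-well qHTS: compounds at up to 57.5 uM final preincubated 10 min RT with coupling enzyme reagent, then substrate plus coupled enzymes and AmpLite Red added; 20 min RT, fluorescence read at 525/598 nm.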

[12] = target: Bifunctional 3'-5' exonuclease/ATP-dependent helicase WRN (Homo sapiens) (UniProt Q14191); experiment: qHTS for Inhibitors of WRN Helicase: Confirmatory Assay for Cherry-picked Compounds. (AID 720497); note: nearly all actives have a fitted effect of over 65% in size
Method in brief: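 Kinetic fluorescence helicase read-out (525 nm excitation, 598 nm emission) on a forked duplex substrate at 100 nM with 2 mM ATP. Enzyme: 20 nM WRN, exposed to compound for 15 min at room temperature. Responses normalized to buffer-only and positive-control wells.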
Potency is the fitted concentration of half-maximal effect; tags give direction and shape of the fitted curve.

Sequence of UniProt P11473 (P11473 whole entry, looked up, the tested form may be a part): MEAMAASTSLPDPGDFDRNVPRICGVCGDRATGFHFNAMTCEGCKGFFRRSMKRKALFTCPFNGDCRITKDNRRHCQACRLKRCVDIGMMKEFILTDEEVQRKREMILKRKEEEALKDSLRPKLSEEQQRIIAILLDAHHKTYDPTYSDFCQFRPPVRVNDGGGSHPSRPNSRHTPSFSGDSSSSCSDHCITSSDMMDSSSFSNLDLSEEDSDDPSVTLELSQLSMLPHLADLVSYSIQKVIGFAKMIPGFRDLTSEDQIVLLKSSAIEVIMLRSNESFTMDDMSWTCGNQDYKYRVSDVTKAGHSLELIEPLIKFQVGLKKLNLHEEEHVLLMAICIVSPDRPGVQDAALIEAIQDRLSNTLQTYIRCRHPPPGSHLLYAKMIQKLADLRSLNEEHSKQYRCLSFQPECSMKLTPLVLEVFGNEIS
Sequence of UniProt Q8WZA2 (Q8WZA2 whole entry, looked up): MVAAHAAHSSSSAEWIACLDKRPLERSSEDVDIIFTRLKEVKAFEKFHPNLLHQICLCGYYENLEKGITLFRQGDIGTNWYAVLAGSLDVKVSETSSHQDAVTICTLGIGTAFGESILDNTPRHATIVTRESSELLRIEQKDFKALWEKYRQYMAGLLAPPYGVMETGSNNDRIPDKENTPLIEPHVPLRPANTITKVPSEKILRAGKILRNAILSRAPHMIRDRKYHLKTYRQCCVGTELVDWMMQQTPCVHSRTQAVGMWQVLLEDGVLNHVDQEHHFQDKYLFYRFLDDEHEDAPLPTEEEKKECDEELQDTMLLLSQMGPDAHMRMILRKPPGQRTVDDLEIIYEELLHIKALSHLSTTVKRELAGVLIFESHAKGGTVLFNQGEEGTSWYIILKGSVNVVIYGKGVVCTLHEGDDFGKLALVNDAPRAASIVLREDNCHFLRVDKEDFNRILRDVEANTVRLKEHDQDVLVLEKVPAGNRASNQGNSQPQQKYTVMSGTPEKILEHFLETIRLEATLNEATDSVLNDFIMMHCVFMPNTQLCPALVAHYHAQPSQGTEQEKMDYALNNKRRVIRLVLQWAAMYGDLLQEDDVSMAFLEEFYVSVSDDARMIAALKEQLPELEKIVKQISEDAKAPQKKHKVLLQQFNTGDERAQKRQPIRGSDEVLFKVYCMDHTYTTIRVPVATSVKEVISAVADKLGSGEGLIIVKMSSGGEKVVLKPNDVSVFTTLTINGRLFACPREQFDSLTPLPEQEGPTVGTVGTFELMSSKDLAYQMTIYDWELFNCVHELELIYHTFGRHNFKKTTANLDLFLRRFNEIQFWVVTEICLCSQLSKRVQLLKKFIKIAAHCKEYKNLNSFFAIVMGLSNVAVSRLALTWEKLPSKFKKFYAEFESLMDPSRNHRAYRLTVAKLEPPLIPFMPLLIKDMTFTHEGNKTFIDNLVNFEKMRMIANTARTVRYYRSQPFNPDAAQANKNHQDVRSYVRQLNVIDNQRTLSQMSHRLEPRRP
Sequence of UniProt O95398 (O95398 whole entry, looked up): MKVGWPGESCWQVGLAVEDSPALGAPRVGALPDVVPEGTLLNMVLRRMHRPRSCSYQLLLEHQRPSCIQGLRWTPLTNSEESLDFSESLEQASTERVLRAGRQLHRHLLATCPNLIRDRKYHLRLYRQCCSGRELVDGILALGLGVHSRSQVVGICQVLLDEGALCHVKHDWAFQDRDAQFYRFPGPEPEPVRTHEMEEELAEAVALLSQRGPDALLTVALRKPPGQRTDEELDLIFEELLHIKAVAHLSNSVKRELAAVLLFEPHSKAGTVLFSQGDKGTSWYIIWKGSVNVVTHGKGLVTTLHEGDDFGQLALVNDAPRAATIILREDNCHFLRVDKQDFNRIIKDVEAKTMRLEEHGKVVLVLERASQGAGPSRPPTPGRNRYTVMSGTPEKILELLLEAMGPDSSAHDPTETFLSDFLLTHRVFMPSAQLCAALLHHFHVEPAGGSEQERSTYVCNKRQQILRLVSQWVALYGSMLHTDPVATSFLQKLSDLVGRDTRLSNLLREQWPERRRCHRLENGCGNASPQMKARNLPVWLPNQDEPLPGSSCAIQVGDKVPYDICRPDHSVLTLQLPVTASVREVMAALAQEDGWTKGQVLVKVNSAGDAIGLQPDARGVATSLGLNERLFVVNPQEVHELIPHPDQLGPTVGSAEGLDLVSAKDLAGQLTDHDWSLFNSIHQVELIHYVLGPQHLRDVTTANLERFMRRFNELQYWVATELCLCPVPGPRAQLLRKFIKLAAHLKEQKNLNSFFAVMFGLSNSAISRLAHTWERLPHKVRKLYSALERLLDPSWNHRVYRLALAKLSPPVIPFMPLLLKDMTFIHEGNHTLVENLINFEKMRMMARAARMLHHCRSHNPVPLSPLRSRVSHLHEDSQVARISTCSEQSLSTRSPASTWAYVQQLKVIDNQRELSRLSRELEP
Sequence of UniProt P00883 (P00883 whole entry, looked up): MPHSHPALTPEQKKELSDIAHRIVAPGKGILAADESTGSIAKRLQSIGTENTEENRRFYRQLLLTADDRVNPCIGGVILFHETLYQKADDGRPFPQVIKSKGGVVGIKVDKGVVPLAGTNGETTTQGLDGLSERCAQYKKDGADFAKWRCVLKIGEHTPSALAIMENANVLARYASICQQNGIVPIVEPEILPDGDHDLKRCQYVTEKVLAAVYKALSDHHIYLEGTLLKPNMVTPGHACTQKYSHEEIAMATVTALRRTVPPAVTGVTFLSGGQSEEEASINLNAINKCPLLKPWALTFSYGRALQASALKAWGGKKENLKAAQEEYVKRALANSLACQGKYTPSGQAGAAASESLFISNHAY
Sequence of UniProt Q99816 (Q99816 whole entry, looked up, the tested form may be a part): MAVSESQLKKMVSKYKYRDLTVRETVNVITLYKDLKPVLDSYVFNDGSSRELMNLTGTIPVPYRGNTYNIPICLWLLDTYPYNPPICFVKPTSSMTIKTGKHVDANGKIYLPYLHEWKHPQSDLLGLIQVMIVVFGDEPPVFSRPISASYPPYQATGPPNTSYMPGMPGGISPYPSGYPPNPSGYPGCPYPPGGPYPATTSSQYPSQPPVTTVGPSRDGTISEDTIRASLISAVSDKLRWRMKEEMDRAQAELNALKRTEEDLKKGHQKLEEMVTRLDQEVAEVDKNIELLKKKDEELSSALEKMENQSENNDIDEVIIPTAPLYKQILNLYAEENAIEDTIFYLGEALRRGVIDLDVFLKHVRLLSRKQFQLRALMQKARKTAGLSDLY
Sequence of UniProt Q14191 (Q14191 whole entry, looked up): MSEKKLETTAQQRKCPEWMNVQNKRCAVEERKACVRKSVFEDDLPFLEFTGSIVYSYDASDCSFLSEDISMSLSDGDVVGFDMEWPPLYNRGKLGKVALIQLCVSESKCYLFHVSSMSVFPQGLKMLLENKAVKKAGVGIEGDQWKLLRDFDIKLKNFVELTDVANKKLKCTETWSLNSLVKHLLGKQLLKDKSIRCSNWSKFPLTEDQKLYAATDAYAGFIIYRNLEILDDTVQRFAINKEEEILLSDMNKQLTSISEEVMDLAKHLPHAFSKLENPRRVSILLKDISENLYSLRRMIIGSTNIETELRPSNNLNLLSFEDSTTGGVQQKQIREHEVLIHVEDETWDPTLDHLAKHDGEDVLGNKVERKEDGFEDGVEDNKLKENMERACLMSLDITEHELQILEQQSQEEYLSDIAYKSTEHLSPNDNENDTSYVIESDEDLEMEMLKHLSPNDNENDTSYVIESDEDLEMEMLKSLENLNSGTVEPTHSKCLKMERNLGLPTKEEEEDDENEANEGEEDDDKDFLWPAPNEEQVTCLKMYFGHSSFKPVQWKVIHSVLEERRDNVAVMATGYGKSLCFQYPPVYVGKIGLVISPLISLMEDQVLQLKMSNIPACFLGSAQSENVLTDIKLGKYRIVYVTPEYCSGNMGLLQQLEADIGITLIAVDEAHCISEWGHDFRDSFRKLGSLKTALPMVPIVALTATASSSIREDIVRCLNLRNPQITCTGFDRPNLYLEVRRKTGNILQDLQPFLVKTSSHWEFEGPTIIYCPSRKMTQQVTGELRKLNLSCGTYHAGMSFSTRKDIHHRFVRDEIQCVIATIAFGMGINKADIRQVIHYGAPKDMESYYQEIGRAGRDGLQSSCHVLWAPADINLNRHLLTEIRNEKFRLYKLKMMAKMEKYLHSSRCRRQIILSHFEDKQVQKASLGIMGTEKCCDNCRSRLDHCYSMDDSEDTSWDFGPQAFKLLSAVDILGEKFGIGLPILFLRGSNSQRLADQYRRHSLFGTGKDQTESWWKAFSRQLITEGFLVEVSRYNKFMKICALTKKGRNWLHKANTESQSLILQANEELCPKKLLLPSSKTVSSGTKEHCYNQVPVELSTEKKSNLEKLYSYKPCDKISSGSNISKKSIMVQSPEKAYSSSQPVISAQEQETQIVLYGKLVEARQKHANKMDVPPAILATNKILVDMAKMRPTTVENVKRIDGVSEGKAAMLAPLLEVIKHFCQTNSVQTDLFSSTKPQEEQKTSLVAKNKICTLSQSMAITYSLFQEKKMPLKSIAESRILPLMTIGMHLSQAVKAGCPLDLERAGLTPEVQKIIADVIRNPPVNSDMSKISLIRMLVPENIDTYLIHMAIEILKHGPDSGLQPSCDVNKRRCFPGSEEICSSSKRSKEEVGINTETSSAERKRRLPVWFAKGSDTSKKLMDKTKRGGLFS
Sequence of UniProt P27695 (P27695 whole entry, looked up): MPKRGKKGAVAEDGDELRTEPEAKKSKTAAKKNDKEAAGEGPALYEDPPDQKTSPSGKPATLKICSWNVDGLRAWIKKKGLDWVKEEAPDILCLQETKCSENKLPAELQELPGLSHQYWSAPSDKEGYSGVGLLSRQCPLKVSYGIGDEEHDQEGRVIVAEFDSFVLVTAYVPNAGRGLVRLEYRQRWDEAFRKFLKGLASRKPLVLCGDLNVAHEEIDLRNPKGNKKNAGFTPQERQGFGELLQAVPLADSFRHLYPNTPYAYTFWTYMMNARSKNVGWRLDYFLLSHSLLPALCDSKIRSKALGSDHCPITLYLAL

Structure (SMILES): CC1(C)c2ccccc2N(CC(N)=O)C12C=Cc1ccccc1O2 (configuration not stated)
- Potency [1]: inactive
- Potency [2]: inconclusive [inhibitor, single point]
- activation [3]: inactive: 10.1% [at 30.8 µM]

Structure (SMILES): O=[N+]([O-])c1ccc2nc(NS(=O)(=O)c3ccc(F)cc3)sc2c1
- Potency [1]: active: 42.6 µM
- Potency [2]: inconclusive [inhibitor, partial curve]
- Potency [3]: inactive

Structure (SMILES): N#Cc1c(NC(=O)CSc2ncnc3sccc23)oc(-c2ccco2)c1-c1ccco1
- Potency [4]: inconclusive [inhibitor, partial curve, poor fit]
- Potency [1]: inconclusive [inhibitor, full curve]
- Potency [2]: active: 84.9 µM
- activation [3]: inconclusive: 45.2% [activator]

Structure (SMILES): Cc1cc2c(c(=O)o1)C(c1ccc([N+](=O)[O-])o1)C(C#N)=C(N)O2 (configuration not stated)
- Potency [5]: inconclusive [inhibitor, single point]
- Potency [1]: inactive
- Potency [2]: inactive
- Potency [3]: inactive

Structure (SMILES): CCn1c(C)nc2cc(C(=O)N/N=C(\C)c3ccccc3O)ccc21
- Potency [1]: active: 7.08 µM
- Potency [2]: inactive
- Potency [3]: inconclusive [activator, full curve, poor fit]

Structure (SMILES): Cc1ccc(N(Cc2ccc([N+](=O)[O-])cc2)C(=O)c2ccco2)cc1
- Potency [1]: inconclusive [inhibitor, partial curve, poor fit]
- Potency [2]: active: 15.1 µM
- Potency [3]: inconclusive [activator, full curve, poor fit]

Structure (SMILES): COCCCNC(=O)c1ccc2c3c(onc13)-c1ccccc1C2=O
- Potency [6]: inconclusive [inhibitor, full curve, poor fit]
- Potency [7]: inconclusive [inhibitor, single point]
- Potency [8]: inconclusive [cytotoxic, single point]
- Potency [9]: inconclusive [inhibitor, single point]
- Potency [1]: inconclusive [inhibitor, partial curve]
- Potency [2]: inconclusive [inhibitor, partial curve, poor fit]
- activation [3]: inconclusive: 46.4% [activator]

Structure (SMILES): COc1cc(/C=C2\COC/C(=C\c3ccc(O)c(OC)c3)C2=O)ccc1O
- Potency [1]: active: 23.9 µM
- Potency [2]: inconclusive [inhibitor, partial curve, poor fit]
- Potency [3]: inconclusive [activator, partial curve, poor fit]

Structure (SMILES): Cc1ccc(C2CC(c3cccs3)=NN2C(=O)CSc2nc(=O)n3cc(C)ccc3n2)cc1 (configuration not stated)
- Potency [1]: inconclusive [inhibitor, partial curve, poor fit]
- Potency [2]: inconclusive [inhibitor, partial curve, poor fit]
- Potency [3]: inactive

Structure (SMILES): CCOc1ccc(C(=O)CCN2CCCCCC2)cc1
- Potency [6]: inconclusive [inhibitor, full curve]
- Potency [7]: inconclusive [inhibitor, single point]
- Potency [8]: inconclusive [cytotoxic, single point]
- Potency [1]: inconclusive [inhibitor, partial curve, poor fit]
- Potency [2]: inconclusive [inhibitor, partial curve, poor fit]
- Potency [3]: inactive

Structure (SMILES): Cc1ccc(OCC(=O)Nc2ccc(C)c(S(=O)(=O)N3CCCCCC3)c2)c([N+](=O)[O-])n1
- Potency [1]: inconclusive [inhibitor, full curve, poor fit]
- Potency [2]: inactive
- Potency [3]: inconclusive [activator, partial curve, poor fit]

Structure (SMILES): COc1ccc(/C(N)=N/OC(=O)c2ccc(C)c([N+](=O)[O-])c2)cc1
- Potency [1]: inactive
- Potency [2]: inactive
- activation [3]: inactive: 16.7% [at 30.8 µM]

Structure (SMILES): CC1=NOC(=O)/C1=C\c1ccc(-c2cc(Cl)ccc2Cl)o1
- Potency [6]: inconclusive [inhibitor, full curve]
- Potency [7]: inconclusive [inhibitor, single point]
- Potency [8]: inconclusive [cytotoxic, single point]
- Potency [1]: active: 23.9 µM
- Potency [2]: active: 75.7 µM
- Potency [3]: inconclusive [activator, full curve, poor fit]

Structure (SMILES): Oc1ccc(-c2cn3c(n2)SCC3)cc1O
- Potency [10]: inconclusive [inhibitor, partial curve]
- Potency [11]: inconclusive [inhibitor, partial curve]
- Potency [12]: inconclusive [inhibitor, partial curve]
- Potency [1]: inconclusive [inhibitor, full curve]
- Potency [2]: inconclusive [inhibitor, single point]
- Potency [3]: inactive
